Screen size: about 310,000 compounds; about 14,000 (4.5%) showed an effect of 50% or more. Effects have a minus sign here. Some of the results follow.
Target: human ether-à-go-go-related gene (hERG) potassium channel (human, UniProt Q12809)
Assay: primary screen, population patch clamp on CHO cells stably expressing hERG
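Note: peak tail current of the secondary pulse compared with the same well before compound.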

human ether-à-go-go-related gene (hERG) potassium channel, sequence (Q12809 whole entry, looked up): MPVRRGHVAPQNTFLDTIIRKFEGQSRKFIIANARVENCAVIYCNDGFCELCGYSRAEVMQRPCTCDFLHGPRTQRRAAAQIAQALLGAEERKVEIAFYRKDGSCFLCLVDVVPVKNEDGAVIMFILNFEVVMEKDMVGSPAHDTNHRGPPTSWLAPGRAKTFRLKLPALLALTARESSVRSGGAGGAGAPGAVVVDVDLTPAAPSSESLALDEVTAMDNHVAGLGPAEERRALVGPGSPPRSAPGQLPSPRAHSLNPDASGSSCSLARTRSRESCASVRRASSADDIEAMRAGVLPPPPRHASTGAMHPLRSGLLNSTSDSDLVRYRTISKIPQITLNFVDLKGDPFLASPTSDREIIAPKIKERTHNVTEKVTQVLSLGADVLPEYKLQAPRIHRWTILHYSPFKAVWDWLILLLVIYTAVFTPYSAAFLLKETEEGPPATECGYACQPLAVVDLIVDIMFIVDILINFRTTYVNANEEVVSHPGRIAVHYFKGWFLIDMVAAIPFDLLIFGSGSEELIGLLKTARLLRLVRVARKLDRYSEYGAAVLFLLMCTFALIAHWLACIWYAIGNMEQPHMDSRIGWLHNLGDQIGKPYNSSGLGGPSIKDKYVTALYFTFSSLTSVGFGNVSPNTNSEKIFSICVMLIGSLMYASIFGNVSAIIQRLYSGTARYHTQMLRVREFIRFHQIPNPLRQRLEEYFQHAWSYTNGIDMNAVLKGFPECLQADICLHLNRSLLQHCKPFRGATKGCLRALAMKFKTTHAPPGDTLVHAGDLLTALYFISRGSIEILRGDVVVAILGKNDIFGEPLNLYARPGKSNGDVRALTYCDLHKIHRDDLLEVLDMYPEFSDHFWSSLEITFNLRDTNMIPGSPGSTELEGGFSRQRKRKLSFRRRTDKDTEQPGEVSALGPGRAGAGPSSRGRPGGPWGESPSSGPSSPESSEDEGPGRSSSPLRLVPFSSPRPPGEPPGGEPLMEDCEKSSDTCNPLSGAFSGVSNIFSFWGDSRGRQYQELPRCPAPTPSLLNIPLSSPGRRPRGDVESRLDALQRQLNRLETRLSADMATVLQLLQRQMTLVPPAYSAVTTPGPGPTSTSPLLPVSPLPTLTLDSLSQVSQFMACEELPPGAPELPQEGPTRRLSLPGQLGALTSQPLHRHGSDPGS

SMILES	hERG current change (%, negative = inhibition) at 10uM [%]
CC1CCCN(C(=O)c2ccc3c(c2)OCCO3)C1 (stereo not drawn)	1.16
Cc1nn(S(=O)(=O)c2ccc(F)cc2)c(C)c1S(=O)(=O)N1CCCCC1	11.3
Cc1onc(-c2ccccc2)c1C(=O)Nc1nnc(N(C)Cc2ccccc2)s1	-2.31
COCCN1C(=O)C(=O)/C(=C(/O)c2ccc(S(=O)(=O)N3CCOCC3)cc2)C1c1cccc(OC)c1 (stereo not drawn)	21.4
CC(=O)Nc1ccc2c(c1)nc(C)n2-c1ccccc1	11.6
COc1ccc(CNC(=O)c2ccc(N3CCCC3=O)cc2)cc1	-0.616
CCCCN(C(=O)c1cccc(S(=O)(=O)N2CC(C)OC(C)C2)c1)c1c(N)n(CCCC)c(=O)[nH]c1=O (stereo not drawn)	7.96
COc1ccc(OC)c(-n2c(=O)c3ccccc3c3ccccc3c2=O)c1	12.5
O=C(c1ccc(COc2ccccc2[N+](=O)[O-])o1)N1CCCCCC1	-16.5
CCO[C@@H]1OC(C(=O)O)=C[C@H](c2coc3ccccc3c2=O)[C@H]1CCCO	18.9
Cc1ccnc(NS(=O)(=O)c2ccc(NS(C)(=O)=O)cc2)n1	12.4
Cc1ccc(C(=O)NN2CCOCC2)cc1	-3.79
C=C(C(=O)O)C1CCC2(C)CCCC(C)(O)C2C1 (stereo not drawn)	9.1
CCNS(=O)(=O)c1ccc(OC)c(C)c1	12.3
COc1ccc(NC(=O)COc2coc(CN3CCCc4ccccc43)cc2=O)cc1	-13.6
NC(=O)C1CCN(CC(=O)Nc2ccccc2C(=O)NC2CC2)CC1	1.42
CCN(Cc1ccccc1)S(=O)(=O)c1c(C)[nH]c(C)c1C(=O)N1CCCCC1	-5.33
CCOC(=O)N1CCN(C(=O)Cn2nc(C)n3nc(-c4ccc(OC)cc4)cc3c2=O)CC1	13.4
O=C(CSc1n[nH]c(=O)[nH]c1=O)c1ccccc1	5.81
CCOC(=O)C1=C(c2ccccc2)OC(N)=C(C#N)C1C1CCCCC1 (stereo not drawn)	6.3
O=C(O)c1cc(-c2ccccc2)nc(-c2ccccc2)c1	22.5
CCOC(=O)N1CCN(C2=NC3(CCCCC3)C(C#N)C(=O)N2)CC1 (stereo not drawn)	1.79
COc1ccc(C(=O)NCc2nnc(SCC(=O)c3ccccc3)n2C)cc1OC	-18.2
O=C(Nc1cccnc1)c1c(F)c(F)c(F)c(F)c1F	-6.62

SMILES	hERG current change (%, negative = inhibition) at 10uM [%]
COCCCNC(=O)CN(c1cc(Cl)ccc1OC)S(=O)(=O)c1ccc(C)c([N+](=O)[O-])c1	13.1
CC1CCCCN1c1nnc(NC(=O)c2cc(-c3ccc(Br)cc3)on2)s1 (stereo not drawn)	-5.29
CC1CCCCN1C(=O)Cn1cc(C=O)c2ccccc21 (stereo not drawn)	-5.3
COc1ccc(NC(=O)c2cccc(S(=O)(=O)N3CCc4ccccc43)c2)cn1	-0.939
O=C(O)c1cccnc1Cl	10.7
Cc1ccc(C)c(C(=O)OCC(=O)Nc2cccc(S(=O)(=O)N3CCCCC3)c2)c1	1.08
CCOc1ccc(S(=O)(=O)NC(C)C(=O)NC2CCCC2)cc1 (stereo not drawn)	16.7
CS(=O)(=O)c1ccc(NC(=O)CCN2C(=O)C3CC=CCC3C2=O)cc1 (stereo not drawn)	-3.8
COc1ccccc1Sc1ccccc1/C=N/NC(N)=O	19.6
COc1ccc(C(=S)N2CCN(C)CC2)cc1Br	-9.51
CS(=O)(=NS(=O)(=O)c1ccc(Cl)cc1)c1ccccc1 (stereo not drawn)	-10.2
Cc1cccc(C)c1N1CCc2cn[nH]c21	8.17
Cc1ccnc(SCC(=O)c2ccc(Br)s2)n1	3.59
O=c1cc(-c2ccncc2)oc2ccccc12	0.135
O=C(CSCCO)Nc1ccccc1	6.45
O=C(Nc1cccnc1Cl)c1cc2c(s1)-c1ccccc1OC2	-3.48
CCOC(=O)c1cc(-c2ccc(C)o2)nn1CCC#N	10.7
Cc1nc2ccc([N+](=O)[O-])cc2c(=O)n1Cc1ccccc1Br	-13.6
CC1CCCCC1NC(=O)CCCn1c(=S)[nH]c2ccccc2c1=O (stereo not drawn)	17.9
COC(=O)c1cc(NC(=O)C2(S(=O)(=O)c3ccc(C)cc3)CC2)cc(C(=O)OC)c1	-36.3
O=C(CSc1n[nH]c(-c2ccco2)n1)Nc1ccc(F)cc1	9.88
COCc1c(C(=O)N/N=C(\C)c2ccc(Cl)s2)nnn1-c1nonc1N	14.4
CCCC(c1nnnn1CS(=O)(=O)c1ccc(C)cc1)N1CCN(CC)CC1.Cl (stereo not drawn)	-10.7
COc1ccc2[nH]c(C)c(CCNC(=S)Nc3cc(C)cc(C)c3)c2c1	18

SMILES	hERG current change (%, negative = inhibition) at 10uM [%]
CC1(C)Cc2c(sc3nc(-c4cccs4)n(N)c(=O)c23)CO1	-22.5
CC1=C2[C@@H]3OC(=O)[C@H](C)C3CC[C@@]2(C)C=CC1=O (stereo partly drawn)	27.7
Oc1ccc2cccnc2c1	-2.63
O=C(c1ccc2ccccc2n1)N1CCN(c2ccccn2)CC1	-2.65
COc1cccc(N2C(=O)N(c3ccccc3Cl)C3CS(=O)(=O)CC32)c1 (stereo not drawn)	0.167
Cc1cc2nc(-c3ccc[nH]c3=O)n(Cc3ccc(F)cc3)c2cc1C	-11.7
Cc1cc(C)c2c(n1)sc1c(N3CCCCC3)ncnc12	3.31
CSc1nc(-c2ccco2)nn1S(=O)(=O)c1ccc(C)cc1	-2.74
COC(=O)CCC(=O)OC1(C)C(=O)C=C2C=C(C3CC3)N(C3CCCCC3)C=C2C1=O (stereo not drawn)	-18.2
CCOC(=O)CC(=O)NC(CC(=O)OC)c1ccc(Br)cc1 (stereo not drawn)	7.04
CCOC(=O)c1ccc(NC(=O)C2CC(=O)Nc3nc4ccccc4n32)cc1 (stereo not drawn)	11.1
CC(C)(C)Cc1nnc(NS(C)(=O)=O)s1	1.81
COc1ccccc1/C=C/c1nc(C#N)c(N(C)C)o1	17.4
Cc1cc(Br)c(S(=O)(=O)n2nnc3ccccc32)cc1C	5.1
Cc1cccc2sc(NC(=O)CNS(=O)(=O)c3ccc(Br)s3)nc12	12.3
Cc1noc(COc2ccccc2OCC(O)CNC(C)(C)C)n1.Cl (stereo not drawn)	14.9
Cc1ccc(NS(=O)(=O)c2cccc(C(=O)NCCCN3CCOCC3)c2)cc1	-31.2
COc1ccc(S(=O)(=O)N2CCCCC2)cc1	0.024
Cc1ccc(C(=O)OCC(=O)NCCc2ccccc2)cc1C	-8.55
CN(/N=C/c1cc(Cl)cc(Cl)c1O)c1c(Cl)cccc1[N+](=O)[O-]	4.19
Cc1cc(C(=O)NCC(C)(C)N2CCOCC2)c(C)o1	13.5
Cc1ccc(C(=O)NCC(=O)OCc2csc(-c3ccccc3)n2)cc1	14.8
CC1C/C(=C\c2ccccc2[N+](=O)[O-])c2nc3ccccc3c(C(=O)O)c2C1 (stereo not drawn)	13
CC(=O)Nc1ccc2oc(-c3cc(F)c(F)cc3Cl)nc2c1	11.1

SMILES	hERG current change (%, negative = inhibition) at 10uM [%]
COc1ccc(-c2[nH]ncc2-c2cnc(C)s2)c(O)c1	19.3
N/C(=N\S(=O)(=O)c1cccs1)c1ccccc1	5.69
CC12CCCCC1N(O)CN2O (stereo not drawn)	-12.9
Cc1[nH][nH]c(=O)c1C	6.25
O=C(CSc1nc2ccccc2[nH]1)Nc1c(F)c(F)c(F)c(F)c1F	-0.465
CC1CC(C)CN(C(=O)CN2C(=O)NC(C)(C)C2=O)C1 (stereo not drawn)	0.776
Cc1cc(-n2c(=O)c(C#N)cc3c(=O)n4cccc(C)c4nc32)no1	-65.1
CCn1c(C)nc2cc(C(=O)OC)ccc21	14.3
Clc1ccc(Cl)c(OCCCCN2CCNCC2)c1.O=C(O)C(=O)O	-17.4
COC(=O)N(NC(=O)C(O)(c1ccccc1)c1ccccc1)c1ccc(C)cc1	0.00068
COc1ccc2[nH]c(C)cc(=O)c2c1	20.8
NC(=O)C1CCN(c2nc3c(S(=O)(=O)c4ccccc4)nnn3c3ccccc23)CC1	2.28
CC(=O)Nc1cc[n+](C(C)C(=O)c2ccc(Br)cc2)cc1.[Cl-] (stereo not drawn)	2.81
Cc1ccc(-n2c(-c3ccncc3)n[nH]c2=S)cc1C	22.4
CC(C)CN(C(=O)CCC(=O)OCC(=O)N(C)c1ccccc1)c1c(N)n(CC(C)C)c(=O)[nH]c1=O	10.7
CCN(CC)CCN1C(=O)C(=O)/C(=C(/O)c2ccc(OC)cc2)C1c1ccco1 (stereo not drawn)	8.87
Cn1c(=O)oc2cc(S(=O)(=O)NCCC(=O)N3CC=C(c4ccccc4)CC3)ccc21	-26
COc1cc(CNc2cccc(F)c2)cc(Br)c1O	5.27
O=[N+]([O-])c1cc(Cl)ccc1N1CCN(c2cccc(C(F)(F)F)c2)CC1	9.63
COc1ccc(C)cc1NC(=O)N1CCC2(CC1)OCCO2	22
Fc1ccc(-n2c(Cn3nnc4ccccc43)n[nH]c2=S)cc1	41.2
